# In PubChem BioAssay AID540317 (National Center for Advancing Translational Sciences (NCATS), 2011):
# Several values for one entry are separate records, joined by “and”; a condition that tells them apart may be missing. Equal entries are not always repeated. About 2,200 (0.56%) of roughly 390,000 compounds were called active. This list was built around the results that the source calls inconclusive (neither active nor inactive); the mix of calls is not that of the screen. The call rests on the fitted dose curve; in most records, active means well fitted inhibition curve with a large enough effect; inconclusive means small, poorly fitted or top-dose-only effect; inactive means no such curve, though single readings can be large or run the other way. A potency beside an inconclusive call is a rough fit, not a confirmed value.
# Biological target: Chromobox protein homolog 1 (Homo sapiens) (UniProt P83916)
# Experiment: HTS for Inhibitors of HP1-beta Chromodomain Interactions with Methylated Histone Tails; further: nearly all actives have a fitted effect of over 70% in size
# Details: AlphaScreen HP1-beta / biotin-H3K9me3 peptide binding; series mostly up to 114 µM
# Method in brief: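 AlphaScreen: HP1-beta (50 nM) preformed 30 min with biotin-H3(1-18)K9me3 peptide (50 nM) in PBS pH 7.4, 0.01% Tween-20. Compound added for 30 min at RT, then streptavidin donor/nickel chelate acceptor beads (10 ug/mL) for 30 min.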
# Potency means the concentration at half of the fitted maximal effect; tags describe the fitted curve by direction and shape.
# Chain of UniProt P83916 (P83916 whole entry, looked up): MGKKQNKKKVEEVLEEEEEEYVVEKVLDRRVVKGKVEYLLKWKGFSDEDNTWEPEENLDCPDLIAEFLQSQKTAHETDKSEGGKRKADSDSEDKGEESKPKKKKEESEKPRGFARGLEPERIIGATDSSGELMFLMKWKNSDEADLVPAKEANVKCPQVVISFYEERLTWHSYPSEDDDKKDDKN
row,SMILES,Potency
1,Cc1ccccc1-c1cc(C(=O)Nc2sc(C(=O)OC(C)C)c(C)c2C#N)c2ccccc2n1,"inconclusive: 14.1 µM [inhibitor, partial curve, poor fit]"
2,Cn1c(N=Nc2ccc(N3CCOCC3)cc2)[n+](C)c2ccccc21,"inconclusive: 50.1 µM [inhibitor, partial curve, poor fit]"
3,CCCCCC1CC1C(=O)N/N=C/c1ccc(N(C)C)cc1 (stereo not drawn),"inconclusive: 17.8 µM [inhibitor, full curve]"
4,COc1ccc(C2CC(=O)Oc3c(C(CCN4CCCCC4)c4ccc(N(C)C)cc4)c(OC)cc(OC)c32)cc1 (stereo not drawn),"inconclusive: 31.6 µM [inhibitor, partial curve] and inconclusive: 17.8 µM [inhibitor, full curve, poor fit]"
5,CS(=O)(=O)N1CCN(c2ccccc2NC(=O)c2ccc([N+](=O)[O-])o2)CC1,"inconclusive: 7.94 µM [inhibitor, full curve, poor fit]"
6,COc1ccc(N=Nc2c(C)[nH]c3ccccc23)cc1,"inconclusive: 56.2 µM [inhibitor, partial curve, poor fit]"
7,Cc1nc2[nH]onc2c2nccc(=O)c12,inactive
8,Cc1ccccc1C(=O)N1CCC(C(=O)NC2CCCC2)CC1,inactive
9,CCOC(=O)Cc1csc(NC(=O)CN2CCN(c3ccccc3)CC2)n1,inactive
10,COc1ccc(CN2C(=NC(=O)C3CCCO3)SC3CS(=O)(=O)CC32)cc1 (stereo not drawn),inactive
11,COc1ccc(C(=O)Oc2ccc(C3NC(=O)c4c(sc5c4CCN(C)C5)N3)cc2OC)cc1 (stereo not drawn),"inconclusive: 39.8 µM [inhibitor, partial curve]"
12,COc1ccc(CCNC(=O)CSc2nn(-c3ccccc3)c(=S)s2)cc1,inactive
13,O=S(=O)(Nc1ccc(O)c2ccccc12)c1cccs1,active: 44.7 µM
14,CC1CCN(c2ccc(C(=O)NCc3ccco3)cc2[N+](=O)[O-])CC1,"inconclusive: 44.7 µM [inhibitor, partial curve]"
15,CCN(CC)c1ccc(CN2CCC(C(=O)NCc3ccc(C)cc3)CC2)cc1,"inconclusive: 15.8 µM [inhibitor, single point]"
16,C[n+]1c(-c2ccccc2)cc2c(=Cc3ccccc3)c3ccccc3n21,"inconclusive: 56.2 µM [inhibitor, partial curve, poor fit]"
17,Cc1ccc(-c2cc(C(=O)Nc3ccc(S(=O)(=O)Nc4nccs4)cc3)c3ccccc3n2)c(C)c1,"inconclusive: 25.1 µM [inhibitor, full curve]"
18,CCOc1cc(CN2CCN(c3cccc(C(F)(F)F)c3)CC2)ccc1OC,"inconclusive: 56.2 µM [inhibitor, single point]"
19,CCOc1ccc(CC(=O)Nc2sc(Cc3ccccc3)cc2C(N)=O)cc1OCC,"inconclusive: 14.1 µM [inhibitor, full curve]"
20,CC1=C([N+](=O)[O-])C(c2cccc(Br)c2)C2=C(N1)c1ccccc1C2=O (stereo not drawn),"inconclusive: 25.1 µM [inhibitor, single point]"
21,Cc1coc2c(C)c3oc(=O)c(CCC(=O)NCCC(=O)O)c(C)c3cc12,inactive
22,CCCCOC(=O)Nc1ccc(S(=O)(=O)Nc2ncccn2)cc1,inactive
23,Cc1csc(NC(=O)c2ccc(COc3ccccc3)o2)n1,"inconclusive: 89.1 µM [inhibitor, single point]"

row,SMILES,Potency
1,COCCn1c(C)cc(/C=C(\C#N)C(=O)OCC(=O)Nc2ccc(S(N)(=O)=O)cc2)c1C,inactive
2,COC(=O)C(NC(=O)c1ccccc1)=C(C)C,inactive
3,O=C(NCCNC1CCC(c2ccccc2)CC1)c1cccs1 (stereo not drawn),"inconclusive: 79.4 µM [inhibitor, single point]"
4,COc1cc2c(cc1OC)CN(c1ccc([N+](=O)[O-])cc1C#N)CC2,"inconclusive: 28.2 µM [inhibitor, single point]"
5,CCOc1ccc(-n2c(-c3ccco3)n[nH]c2=S)cc1,"inconclusive: 70.8 µM [inhibitor, partial curve]"
6,O=[N+]([O-])c1ccc(CN2CCN(c3ncccn3)CC2)cc1,"inconclusive: 15.8 µM [inhibitor, full curve, poor fit]"
7,O=C(CCNC(=O)c1ccccc1)OCC(=O)c1ccccc1,inactive
8,Cc1c(N2C(=O)/C(=C/c3cccc4ccccc34)SC2=S)c(=O)n(-c2ccccc2)n1C,"inconclusive: 35.5 µM [inhibitor, partial curve, poor fit]"
9,COc1ccc(Br)cc1CN1CCN(C(=O)c2ccco2)CC1,active: 31.6 µM
10,O=C(O)c1cc(N2C(=O)C=CC2=O)cc(N2C(=O)C=CC2=O)c1,active: 5.62 µM
11,CN(C)S(=O)(=O)c1cccc(NC(=S)Nc2cccc3cnccc23)c1,"inconclusive: 56.2 µM [inhibitor, partial curve, poor fit]"
12,COc1cc(CNCc2cc(OC)ccc2OC)cc(OC)c1,"inconclusive: 25.1 µM [inhibitor, partial curve]"
13,Cc1ccc(Nc2ccc(S(=O)(=O)N3CCOCC3)cc2[N+](=O)[O-])cc1C,"inconclusive: 20 µM [inhibitor, partial curve, poor fit]"
14,CC(=O)c1ccc(OCC(=O)c2cc(C)n(-c3ccc4c(c3)OCO4)c2C)cc1,"inconclusive: 25.1 µM [inhibitor, single point]"
15,CN(C)c1ccc(CNC(=O)CN2C(=O)CCn3nc(-c4cn(C)c5ccccc45)cc32)cc1,inactive
16,COc1ccc(CCNC(=O)c2ccc(-c3ccc([N+](=O)[O-])cc3Cl)o2)cc1OC,"inconclusive: 8.91 µM [inhibitor, full curve]"
17,CCC(CC)C(=O)NCc1nc2cccnc2n1Cc1ccc(F)cc1,inactive
18,COC(=O)N/N=C\c1c(C)[nH]n(-c2ccccc2)c1=O,inactive
19,CC(C)Cn1c(-c2cccnc2)nc2c1c(=O)[nH]c(=O)n2CC(C)C,inactive
20,N#CC1=C(N)C(C#N)(C#N)C(c2ccncc2)C2CN(C(=O)OCc3ccccc3)CC=C12 (stereo not drawn),inactive
21,CNC(=O)COc1coc(CN2CCN(c3ccc(OC)cc3)CC2)cc1=O,inactive
22,C/C=C\C=C/C(=O)Nc1cccc(C2=NOC3(C2)C[C@@H](C(N)=O)N(C(=O)/C=C/C=C\C)C3)c1 (stereo partly drawn),"inconclusive: 22.4 µM [inhibitor, full curve]"
23,S=C(c1ccc(-c2ccc(Cl)cc2Cl)o1)N1CCCC1,"inconclusive: 12.6 µM [inhibitor, full curve, poor fit]"

row,SMILES,Potency
1,COc1ccc(N2CCN(C(=O)CC(NC(N)=O)c3cccc(Oc4ccccc4)c3)CC2)cc1 (stereo not drawn),"inconclusive: 31.6 µM [inhibitor, partial curve]"
2,CC(C)Oc1ccc(C2NC(=O)c3ccccc3O2)cc1 (stereo not drawn),inactive
3,COc1ccc(Cn2c(C)nc3c(c2=O)c2nc4ccccc4nc2n3Cc2ccco2)cc1,"inconclusive: 10 µM [inhibitor, full curve]"
4,CC1=C(C#N)c2nc(N)c(C#N)c(C)c2/C1=C\c1ccc(OCC(=O)O)c(Cl)c1,"inconclusive: 56.2 µM [inhibitor, partial curve, poor fit]"
5,CCOc1ccc(CN2CCSCC2)cc1,"inconclusive: 56.2 µM [inhibitor, single point]"
6,S=C(c1ccc(-c2cc(Cl)ccc2Cl)o1)N1CCCCC1,"inconclusive: 35.5 µM [inhibitor, partial curve]"
7,COc1ccc(N=C2SCC(c3ccc([N+](=O)[O-])cc3)=NN2CCO)cc1,"inconclusive: 39.8 µM [inhibitor, partial curve]"
8,CC(C)N=c1scc(-c2ccco2)n1/N=C/c1ccc(O)c(O)c1,"inconclusive: 10 µM [inhibitor, full curve]"
9,Cc1ccc(S(=O)(=O)NCCC2(C(C)C)CCOC(C)(C)C2)cc1 (stereo not drawn),inactive
10,O=C(Nc1ccccc1)Nc1ccc(O)c2ccccc12,"inconclusive: 44.7 µM [inhibitor, partial curve]"
11,C/C(=N\Nc1ccccc1[N+](=O)[O-])c1ccccc1O,"inconclusive: 10 µM [inhibitor, full curve, poor fit]"
12,CC(=O)N1CCc2cc(S(=O)(=O)NCCC(=O)NCCc3ccc(C)cc3)ccc21,inactive
13,CCOc1ccccc1OCCCNCc1ccco1,"inconclusive: 56.2 µM [inhibitor, single point]"
14,CCOc1ccc(N=C/C=C/c2ccccc2)c(O)c1,"inconclusive: 31.6 µM [inhibitor, partial curve, poor fit]"
15,Cc1ccccc1Nc1ccc2nonc2c1[N+](=O)[O-],inactive
16,CC1CC(C)CN(C(=O)CN2C(=O)NC(c3ccccc3)(c3ccccc3)C2=O)C1 (stereo not drawn),"inconclusive: 89.1 µM [inhibitor, single point]"
17,COC(=O)c1c(C)[nH]c(O)c1C=Nc1ccc(C(C)C)cc1,"inconclusive: 50.1 µM [inhibitor, partial curve]"
18,O=C(CSc1nc2ncc(Br)cc2[nH]1)c1ccc([N+](=O)[O-])cc1,"inconclusive: 17.8 µM [inhibitor, partial curve, poor fit]"
19,Cc1ccc(/C=C/C(=O)NCc2ccccn2)o1,"inconclusive: 39.8 µM [inhibitor, full curve, poor fit]"
20,O=S(=O)(Nc1ccc(N2CCCCC2)cc1)c1ccccc1,"inconclusive: 39.8 µM [inhibitor, partial curve]"
21,CC(NCCCOc1cccc2ccccc12)c1ccccc1 (stereo not drawn),"inconclusive: 44.7 µM [inhibitor, partial curve]"
22,O=C(C(c1ccccc1)c1ccccc1)N1CCN(Cc2ccccn2)CC1,"inconclusive: 28.2 µM [inhibitor, single point]"
